Results from the supplement of paper PMC4967469.
By IC50 is meant the dose at which the fit gives 50% viability; where the fit passes the top or lowest dose, that dose stands as a limit. The AUC spans the tested range (256-fold, ending at the top dose) of the same fit; it is 1 without any effect and falls as sensitivity rises. For part of these data: An inferred top dose was derived from the fitted curves, not read from the paper. For part of these data: Where an entry number is given, a second screen of the drug exists; the two often differ.

Columns and labels:
Assay in all cases: Viability of human cancer cell lines after 72 h of drug (GDSC screen)
AS601245 = compound: N#CC(c1ccnc(NCCc2cccnc2)n1)c1nc2ccccc2s1 [AS601245]; details: top dose 8 µM; top dose inferred
Method: (§1)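 Human cancer cell lines in 384-well plates, medium with 10% serum, drug for 72 h over a 256-fold dose range (nine 2-fold or five 4-fold steps up to the top dose). Adherent lines were fixed and stained with the nucleic acid dye Syto60, suspension lines read with resazurin; signal relative to control wells, capped at 0 and 100%. One two-parameter sigmoid per drug and line, fitted in a mixed model over all curves with the slope shared within a line.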

AZD6244 = compound: Cn1cnc2c(F)c(Nc3ccc(Br)cc3Cl)c(C(=O)NOCCO)cc21 [AZD6244]; details: top dose 4 µM; screen: GDSC drug entry 1498; top dose inferred
Method: as §1

YM201636 = compound: Nc1ccc(C(=O)Nc2cccc(-c3nc(N4CCOCC4)c4oc5ncccc5c4n3)c2)cn1 [YM201636]; details: top dose 5.12 µM; top dose inferred
Method: as §1

EX-527 = compound: NC(=O)C1CCCc2c1[nH]c1ccc(Cl)cc21 [EX-527]; details: top dose 20 µM
Method: as §1

Cell Line | AUC (AS601245) | IC50 (AS601245) | AUC (AZD6244) | IC50 (AZD6244) | AUC (YM201636) | IC50 (YM201636) | AUC (EX-527) | IC50 (EX-527)
SBC-3 (small cell lung carcinoma, adherent) | 0.761 | 2.61 µM | 0.957 | > 4 µM | 0.879 | 4.44 µM | 0.96 | > 20 µM
SBC-5 (small cell lung carcinoma, adherent) | 0.8 | 3.07 µM | 0.98 | > 4 µM | 0.919 | > 5.12 µM | 0.993 | > 20 µM
SCC-4 (head and neck, adherent) | 0.769 | 3.58 µM | 0.795 | 2.27 µM | 0.958 | > 5.12 µM | 0.98 | > 20 µM
SCC-9 (head and neck, adherent) | 0.93 | > 8 µM | 0.523 | 0.293 µM | 0.813 | 3.77 µM | 0.978 | > 20 µM
SCC-25 (head and neck, adherent) | 0.785 | 3.92 µM | 0.81 | 2.45 µM | 0.827 | 3.68 µM | 0.983 | > 20 µM
SF295 (glioma, adherent) | 0.792 | 3.94 µM | 0.938 | > 4 µM | 0.961 | > 5.12 µM | 0.982 | > 20 µM
SISO (cervix, adherent) | 0.812 | 4.08 µM | 0.81 | 2 µM | 0.927 | > 5.12 µM | 0.986 | > 20 µM
SJRH30 (rhabdomyosarcoma, adherent) | 0.878 | > 8 µM | 0.979 | > 4 µM | 0.986 | > 5.12 µM | 0.977 | > 20 µM
SK-CO-1 (large intestine, adherent) | 0.873 | 6.92 µM | 0.681 | 0.774 µM | 0.869 | 4.24 µM | 0.989 | > 20 µM
SK-HEP-1 (liver, adherent) | 0.841 | 5.03 µM | 0.893 | > 4 µM | 0.969 | > 5.12 µM | 0.977 | > 20 µM
SK-LU-1 (lung adenocarcinoma, adherent) | 0.745 | 3.11 µM | 0.814 | 2.97 µM | 0.9 | > 5.12 µM | 0.972 | > 20 µM
SK-MEL-3 (melanoma, adherent) | 0.89 | > 8 µM | 0.663 | 0.766 µM | 0.791 | 2.71 µM | 0.886 | > 20 µM
SK-MEL-24 (melanoma, adherent) | 0.897 | > 8 µM | 0.556 | 0.367 µM | 0.803 | 3.2 µM | 0.975 | > 20 µM
SK-MEL-30 (melanoma, adherent) | 0.882 | > 8 µM | 0.341 | 0.0882 µM | 0.917 | > 5.12 µM | 0.986 | > 20 µM
SK-MES-1 (lung squamous cell carcinoma, adherent) | 0.788 | 3.86 µM | 0.784 | 1.87 µM | 0.967 | > 5.12 µM | 0.971 | > 20 µM
SK-N-AS (neuroblastoma, adherent) | 0.98 | > 8 µM | 0.447 | 0.175 µM | 0.928 | > 5.12 µM | 0.984 | > 20 µM
SK-N-SH (neuroblastoma, adherent) | 0.758 | 2.76 µM | 0.966 | > 4 µM | 0.822 | 2.95 µM | 0.987 | > 20 µM
SK-OV-3 (ovary, adherent) | 0.797 | 4.92 µM | 0.923 | > 4 µM | 0.908 | > 5.12 µM | 0.975 | > 20 µM
SKG-IIIa (cervix, adherent) | 0.933 | > 8 µM | 0.926 | > 4 µM | 0.981 | > 5.12 µM | 0.983 | > 20 µM
SKN (uterus, adherent) | 0.844 | 7.61 µM | 0.879 | > 4 µM | 0.853 | > 5.12 µM | 0.976 | > 20 µM
SKN-3 (head and neck, adherent) | 0.943 | > 8 µM | 0.897 | > 4 µM | 0.929 | > 5.12 µM | 0.982 | > 20 µM
SN12C (kidney, adherent) | 0.973 | > 8 µM | 0.846 | 3.47 µM | 0.986 | > 5.12 µM | 0.981 | > 20 µM
SNG-M (endometrium, adherent) | 0.607 | 0.975 µM | 0.748 | 1.26 µM | 0.89 | > 5.12 µM | 0.986 | > 20 µM
SNU-182 (liver, adherent) | 0.901 | > 8 µM | 0.881 | > 4 µM | 0.866 | 4.93 µM | 0.986 | > 20 µM
SNU-387 (liver, adherent) | 0.763 | 3.26 µM | 0.755 | 1.53 µM | 0.91 | > 5.12 µM | 0.964 | > 20 µM
SNU-398 (liver, adherent) | 0.635 | 1.2 µM | 0.928 | > 4 µM | 0.751 | 1.75 µM | 0.959 | > 20 µM
SNU-423 (liver, adherent) | 0.749 | 2.99 µM | 0.866 | > 4 µM | 0.927 | > 5.12 µM | 0.98 | > 20 µM
